# Data published in ChEMBL document CHEMBL5606460, “ASAP - DENV-2 NS2B-NS3 protease fluorescence single point” (2024).
# About 110 (5.5%) of roughly 2,000 compounds showed an effect of 50% or more. This is one part of the list.
# Target: Genome polyprotein (dengue virus type 2) (UniProt P29990)
# [1] = Thailand/16681/1984, Concentration 25.0 uM, Number of replicates 1.0
smiles,measurement,setting,value
CNC(=O)c1cc(Cl)cc(C)c1NS(=O)(=O)c1ccc(Oc2ccccc2Cl)cc1,inhibition,"Thailand/16681/1984, Concentration 49.5 uM, Number of replicates 2.0, Standard deviation 1.9936078061389018 %",-4.39%
same,inhibition,"Thailand/16681/1984, Concentration 99.01 uM, Number of replicates 2.0, Standard deviation 1.8430300976388188 %",-5.53%
same,inhibition,"Thailand/16681/1984, Concentration 198.0 uM, Number of replicates 2.0, Standard deviation 2.010624849106266 %",-7.09%
c1cnc2c(C3CCN(Cc4cscn4)CC3)c[nH]c2c1,inhibition,"Thailand/16681/1984, Concentration 49.5 uM, Number of replicates 2.0, Standard deviation 1.714470745737797 %",-3.42%
same,inhibition,"Thailand/16681/1984, Concentration 99.01 uM, Number of replicates 2.0, Standard deviation 2.482934234636928 %",-3.54%
same,inhibition,"Thailand/16681/1984, Concentration 198.0 uM, Number of replicates 2.0, Standard deviation 1.6201369950511377 %",-3.14%
CS(=O)(=O)Nc1ccc(C(=O)Nc2nc3ccccc3s2)cc1,inhibition,"Thailand/16681/1984, Concentration 49.5 uM, Number of replicates 2.0, Standard deviation 0.9713118875098187 %",7.05%
same,inhibition,"Thailand/16681/1984, Concentration 99.01 uM, Number of replicates 2.0, Standard deviation 1.8224459140008862 %",14.3%
same,inhibition,"Thailand/16681/1984, Concentration 198.0 uM, Number of replicates 2.0, Standard deviation 1.5774075085064292 %",25.1%
Cc1c(NC(=O)C2CCN(c3ccc(C=O)cc3)CC2)c(=O)n(-c2ccccc2)n1C,inhibition,[1],15%
COc1cc(CC(=O)NCc2ccccn2)nc(N2CCNCC2)n1,inhibition,"Thailand/16681/1984, Concentration 49.5 uM, Number of replicates 2.0, Standard deviation 0.7207981006316144 %",-4.58%
same,inhibition,"Thailand/16681/1984, Concentration 99.01 uM, Number of replicates 2.0, Standard deviation 0.19323318517880653 %",-4.36%
same,inhibition,"Thailand/16681/1984, Concentration 198.0 uM, Number of replicates 2.0, Standard deviation 1.2378404652977986 %",-5.06%
COc1ccc([C@@H](C)NC(=O)C2CCN(c3ccc(C=O)cc3)CC2)cc1OC,inhibition,[1],12.5%
Cc1cc(CO)c2cccc(Cc3ccccc3C(=O)NCc3sccc3C)c2n1,inhibition,"Thailand/16681/1984, Concentration 49.95 uM, Number of replicates 2.0, Standard deviation 0.661878407993628 %",1.17%
same,inhibition,"Thailand/16681/1984, Concentration 99.9 uM, Number of replicates 2.0, Standard deviation 2.367239112425795 %",7.83%
CNC(=O)C[C@H]1CCN1S(=O)(=O)c1ccc(Oc2ccccc2Cl)cc1,inhibition,"Thailand/16681/1984, Concentration 49.5 uM, Number of replicates 2.0, Standard deviation 0.3861860095213186 %",-3.15%
same,inhibition,"Thailand/16681/1984, Concentration 99.01 uM, Number of replicates 2.0, Standard deviation 0.3537656421223746 %",-2.95%
same,inhibition,"Thailand/16681/1984, Concentration 198.0 uM, Number of replicates 2.0, Standard deviation 0.4333866866371539 %",-1.59%
COc1cc(-c2ccccc2C(=O)Nc2cnn(C)c2)ccn1,inhibition,"Thailand/16681/1984, Concentration 49.5 uM, Number of replicates 2.0, Standard deviation 4.323163758485895 %",-4.69%
same,inhibition,"Thailand/16681/1984, Concentration 99.01 uM, Number of replicates 2.0, Standard deviation 4.48735902944615 %",-4.18%
same,inhibition,"Thailand/16681/1984, Concentration 198.0 uM, Number of replicates 2.0, Standard deviation 2.9236410702171507 %",-5.24%
CC(C)(NC(=O)C1CCN(c2ccc(C=O)cc2)CC1)c1ccc(Cl)cc1,inhibition,[1],14.1%
OCCOc1cc(COc2cccnc2F)nc(N2CCNCC2)n1,inhibition,"Thailand/16681/1984, Concentration 49.5 uM, Number of replicates 2.0, Standard deviation 0.8209703699487908 %",-4.61%
same,inhibition,"Thailand/16681/1984, Concentration 99.01 uM, Number of replicates 2.0, Standard deviation 1.5262481464973596 %",-4.32%
same,inhibition,"Thailand/16681/1984, Concentration 198.0 uM, Number of replicates 2.0, Standard deviation 1.6374908756318014 %",-3.89%
O=C(Nc1cccc(B(O)O)c1)[C@H]1CCn2ccnc2C1,inhibition,"Thailand/16681/1984, Concentration 49.5 uM, Number of replicates 2.0, Standard deviation 3.550528405933761 %",-1.16%
same,inhibition,"Thailand/16681/1984, Concentration 99.01 uM, Number of replicates 2.0, Standard deviation 3.6153694779064374 %",-0.272%
same,inhibition,"Thailand/16681/1984, Concentration 198.0 uM, Number of replicates 2.0, Standard deviation 3.112374067793055 %",0.553%
